Assay results reported in PubChem BioAssay AID1963576 (National Center for Advancing Translational Sciences (NCATS), 2024).
About 60 (0.1%) of roughly 46,000 compounds were called active. Roughly 3% stayed inconclusive and do not appear here. Calls follow the shape of the dose curve; as a rule, active = well fitted inhibition curve with a large enough effect; inconclusive = small, poorly fitted or top-dose-only effect; inactive = no such curve, though single readings can be large or run the other way. The list shows a part of the results.

experiment: Primary qHTS assay for Inhibitors of ovarian cancer metastasis using an organotypic tumor microenvironment (TME) model.; also: nearly all actives have a fitted effect of over 65% in size;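 as to activity change, negative = inhibition: plate controls were DMSO wells for no effect and tomatine positive control wells for full effect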; conditions: SKOV3ip1-GFP adhesion/invasion on 3D omental model, fluorescence; series mostly up to 45.8 µM; activity change, negative = inhibition: at the top concentration
How it was run: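 qHTS, 4-pt dose (0.36-46 umol/L); SKOV3ip1-GFP, 1,200 cells/well, no FBS; primary omental fibroblast/mesothelial co-culture 48 h pre-grown; 2 h RT + 16 h 37 C; PBS wash, 4% PFA; GFP count 488/509 nm.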

Activity change, negative = inhibition, inactive:
Cc1cccc(C(=O)Nc2ccc3oc(-c4cccc5c(Br)cccc45)nc3c2)c1 -10.7%
Cc1c(CCC(=O)NCCc2ccccc2)c(=O)oc2cc(O)ccc12 -1.88%
CCOc1ccc2c(c1)c(=O)c(C(=O)c1ccccc1)cn2Cc1ccccc1 5.64%
Cc1ccc(C(=O)Nc2c(C(=O)NC(C)(C)C)oc3ccccc23)cc1 47.9%
COc1ccc(CNC(=O)Cn2nc3c(cc2=O)CCCC3)cc1 6.08%
Cc1ccc(-n2nc(C)c3nc(CCC(=O)Nc4cccc(C)c4C)c(=O)n(C)c32)cc1 4.78%
CCOC(=O)c1ccc(NC(=O)CSc2c(C(C)C)cnc3c2c(=O)n(C)c(=O)n3C)cc1 -7.29%
CCOc1ccc(NC(=O)CSc2ncc3c(n2)-c2ccc(Cl)cc2N(Cc2ccccc2)S3(=O)=O)cc1 7.92%
COc1ccc(N2CCN(S(=O)(=O)c3ccc4oc(=O)c5ncn(C)c5c4c3)CC2)cc1 -18.8%
CCc1ccc(CNC(=O)CN2C(=O)c3cccnc3Oc3ccc(Cl)cc32)cc1 -3.16%
Cc1ccc(-c2nc(C)c(CCNC(=O)c3ccco3)s2)cc1 -7.13%
O=C(CSc1nc2ccccc2nc1Cc1ccc(Cl)cc1)N1CCc2ccccc21 9.17%
O=C(CSC1=Nc2ccccc2C2=NC(CC(=O)NC3CCCCC3)C(=O)N12)Nc1ccc(F)cc1 (stereo not drawn) -2.6%
CCN(c1cccc(C)c1)S(=O)(=O)c1nnc(NC(=O)C2CCCCC2)s1 2.51%
Cc1c2cnn(-c3ccccc3)c(=O)c2c(C)n1CCCC(=O)Nc1cc(F)ccc1F 9.8%
COC(=O)c1nc2n(n1)C(c1cccc(Cl)c1)C(C(=O)Nc1ccccc1OC)=C(C)N2 (stereo not drawn) 17.5%
Cc1ccc(C)c(N2CCN(S(=O)(=O)c3cc(Br)cc4c3N(C(=O)C3CC3)CC4)CC2)c1 0.308%
COc1ccc(C)cc1NC(=O)c1oc2ccc(S(=O)(=O)N3CCCCC3)cc2c1C 1.27%
NC(=O)c1c(NC(=O)c2nc(SCc3ccccc3F)ncc2Cl)sc2c1CCCC2 7.73%
Cc1ccc2[nH]c(CSc3nnc(NC(=O)COc4ccccc4)s3)cc(=O)c2c1 0.743%
COc1ccc(-n2c(SCC(=O)Nc3ccc(Cl)c(C)c3)nc3n[nH]c(C)c3c2=N)cc1 -7.47%
CCOc1ccc(CCNC(=O)c2sc3nc4n(c(=O)c3c2C)CCCC4)cc1OCC 8.39%
CCOC(=O)c1ccc(NC(=O)CCn2c(=O)c3cccn3c3ccccc32)cc1 -1.94%
O=C(C1CCN(S(=O)(=O)c2ccc(Br)s2)CC1)N1CCN(c2cccc(Cl)c2)CC1 2.3%
CCOc1ccc2nc(N3CCCC(C(=O)Nc4c(C)cccc4C)C3)sc2c1 (stereo not drawn) 14.6%
COc1ccc(OC)c(CNC(=O)c2nn(-c3ccc(OC)c(Cl)c3)c(=O)c3c2c2ccccc2n3C)c1 3.72%
CCCCn1cc(S(=O)(=O)c2ccc(C)c(C)c2)c(=O)c2cc(F)c(N3CCCC(C)C3)cc21 (stereo not drawn) -0.773%
CCS(=O)(=O)N1CCc2cc(C(=O)Nc3ccc(OC)c(Cl)c3)ccc21 -0.787%
O=C(Nc1nc2ccc(S(=O)(=O)N3CCCC3)cc2s1)c1cccc(F)c1 -4.84%
Cc1cc(C)cc(-n2ccnc2SCC(=O)Nc2nnc(C)s2)c1 -21.4%
COc1ccc(S(=O)(=O)n2nc(C)c(S(=O)(=O)N3CCC(C)CC3)c2C)cc1C 1.23%
COc1ccc(CCNS(=O)(=O)c2ccc3c(c2)CC(C)N3C(=O)C2CCC2)cc1OC (stereo not drawn) -1.23%
CCC(=O)Nc1c(C(=O)N2CCN(c3ccc(F)cc3)CC2)oc2ccccc12 -1.43%
COc1ccc(CCNC(=O)CCCn2c(=O)c3ccccc3n(Cc3cccc(Cl)c3)c2=O)cc1OC 18.7%
Cc1ccc(-c2nc3scc(CCNC(=O)Cc4ccc(Cl)cc4)n3n2)cc1 0.41%
CCOc1ccc(N(C(=O)CC(C)C)S(=O)(=O)c2ccc3c(c2)oc(=O)n3C)cc1 -9.41%
Cn1c(SCc2ccc(F)cc2)nc2ccc(C(=O)NCc3ccc(Cl)cc3)cc21 4.72%
COc1ccc(-c2noc(CN(C(=O)COc3cc(C)c(Br)c(C)c3)C(C)C)n2)cc1 0.923%
Cc1ccc(NC(=O)Cn2cc(C(=O)C3CC3)c3ccccc32)cc1 -3.81%
COc1ccc(NC(=O)Cn2nnc(C(=O)Nc3ccc(F)c(Cl)c3)c2N)cc1OC 2.89%
Cc1cccc(C)c1NC(=O)CSc1nc(-c2ccccc2)nc2c1Cc1c(CO)cnc(C)c1O2 5.98%
CCCn1c(SCc2nc(-c3ccc(OC)cc3OC)no2)nnc1-c1ccc(Cl)cc1 -0.976%
CCOC(=O)c1[nH]c2c(c1Cc1ccccc1)C(=O)CC(c1ccc(Cl)cc1)C2 (stereo not drawn) -1.51%
Cn1c(=O)c(=O)n(C)c2cc(N3CCOCC3)c(NS(=O)(=O)c3ccc(Cl)cc3)cc21 3.76%
COC(=O)c1scc(-c2ccc(C)cc2)c1S(=O)(=O)Nc1cc(Cl)ccc1C 2.82%
COCCOC(=O)c1c(C)n(S(=O)(=O)c2ccc(C)cc2)c2ccc(NS(=O)(=O)c3ccc(C)cc3)cc12 13%
COc1cccc(C(c2sc3nc(-c4ccco4)nn3c2O)N2CCC(O)CC2)c1 (stereo not drawn) 0.589%
Cc1ccc(CNC(=O)c2ccc3nc(N4CCCCC4)sc3c2)cc1 142%
O=S(=O)(NCCc1nnc2ccc(SCc3ccc(Cl)cc3Cl)nn12)c1ccccc1 -5.26%
CCOC(=O)c1ccc(NC(=O)c2c(NC(C)=O)sc3c2CCC(C)C3)cc1 (stereo not drawn) 1.88%
COc1ccc(F)cc1S(=O)(=O)NCCc1c(C)[nH]c2c(Cl)cccc12 2.98%
COc1ccc(OC)c(CCNC(=O)c2ccc3c(c2)N(Cc2ccc(C)cc2)CCS3)c1 -5.47%
CCc1cccc(OCC(=O)Nc2ccc(S(=O)(=O)Nc3cc(C)nc(C)n3)cc2)c1 -11.8%
Cc1cc(C)cc(NC(=O)CSc2nc3c(oc4ccccc43)c(=O)n2-c2ccccc2F)c1 -21.3%
COc1ccc2cc3cc(C(=O)NCc4ccc(C)cc4)oc3nc2c1 1.32%
CCCCOc1ccc(C(=O)Nc2nnc3n2CCS3)cc1 -29.3%
CCOC(=O)N1CCC(NC(=O)c2c(C)nn(-c3ccc(C)cc3)c2-n2cccc2)CC1 -1.75%
COc1ccc(Nc2cc(C(=O)NCCc3ccc(C)cc3)c3ccccc3n2)c(OC)c1 -0.148%
CCOc1ccc(NC(=O)CCNS(=O)(=O)c2ccc3c(c2)oc(=O)n3C)cc1 0.327%
Cc1ccc(C(=O)NCCc2ccc(Cl)cc2)cc1-n1c(C)nc2cccnc21 3.74%
CCOc1ccc(-c2nn(CC(=O)NC3CCCCC3)c3c2cnc2ccc(C)cc23)cc1 9.54%
CCn1c(=O)c2cc(C(=O)N(CCN(C)C)Cc3ccccc3)sc2c2ccccc21 1.84%
Cc1ccc(C)c(Cn2c3ccccc3c3cnn(CC(=O)NCCC4=CCCCC4)c(=O)c32)c1 8.4%
COc1ccccc1CNC(=O)c1ccc2c(c1)N(Cc1cccc(C)c1)C(=O)c1ccccc1S2(=O)=O -17.7%
COc1ccc(NC(=O)Cn2nnc3sc4c(c3c2=O)CCC(C)C4)c(OC)c1 (stereo not drawn) -0.336%
COCCCNC(=O)CSC1=Nc2ccccc2C2=NC(CCC(=O)NCc3ccccc3OC)C(=O)N12 (stereo not drawn) -14.8%
O=S(=O)(Nc1cccc(-c2ccc(N3CCCC3)nn2)c1)c1ccccc1C(F)(F)F 0.939%
Cc1nnc(SCc2ccccc2)c2cc3sccc3n12 -26.3%
CCOc1cc(C(=O)N2CC(=O)Nc3ccc(C)cc3C2c2ccccc2)cc(OCC)c1OCC (stereo not drawn) 28.2%
CCc1ccc(CNC(=O)CCC(=O)N2Cc3cccc(OC)c3Oc3ncccc32)cc1 3.77%
O=C(NCc1ccco1)C1CCN(C(=O)N2CCOc3ccccc32)CC1 -8.62%

outcome, inactive:
COc1ccc2c(c1)c1c(c(=O)n(-c3ccc(F)c(Cl)c3)c(=O)n1Cc1cccc(C)c1)n2C
Cc1ccc(-c2cc(-c3ccc4c(c3)NC(=O)CO4)nc3c2COc2ccccc2-3)cc1
Cc1ccc2c(c1)C(=O)OC(C(=O)Nc1ncc(Cc3ccccc3Cl)s1)C2 (stereo not drawn)
Cc1cccc(N2C(=O)N(Cc3cc(=O)n4ccccc4n3)c3ccccc3S2(=O)=O)c1
COc1ccc(-c2nc3sc(CCNC(=O)c4cc(OC)c(OC)c(OC)c4)c(C)n3n2)cc1
Cc1cccc(C)c1NC(=O)C(NS(=O)(=O)c1ccc2c(c1)CCC(=O)N2)c1ccccc1 (stereo not drawn)
CCOc1ccc(C2c3[nH]c4ccccc4c3CCN2C(=O)CCc2ccccc2)cc1 (stereo not drawn)
Cc1ccc(Sc2c(C)nn(C(=O)COc3ccccc3Br)c2C)cc1
COc1cc(C(=O)NCCCc2nc3ccccc3n2CC(C)C)cc(OC)c1OC
CCOC(=O)c1sc2ncn(CC(=O)Nc3ccc(N(C)C)cc3)c(=O)c2c1C
CCOc1ccc(CC(=O)NCCc2csc(-c3ccc(C)cc3)n2)cc1
CCC1CN(C(=O)N2CCC(C(=O)NCCc3ccc(Cl)cc3)CC2)c2ccccc2O1 (stereo not drawn)
O=C1NCCN(Cc2ccc(F)cc2)C1=O
CCN(CC)c1ccc(NS(=O)(=O)c2ccc(-c3cnc(C4CC4)o3)cc2)c(C)c1
CCc1ccc(S(=O)(=O)c2cn(CC(=O)Nc3ccc(C)cc3)c3ccccc3c2=O)cc1
CCOc1ccccc1NC(=O)c1sc2nc3n(c(=O)c2c1C)CCCCC3
CCOc1ccc(CCNC(=O)c2ccc3c(Cl)c4c(nc3c2)CCCC4)cc1
CCOCCCNC(=O)C1CCN(c2nn3cc(-c4ccc(F)cc4)nc3s2)CC1
COc1cc(-c2noc(-c3ccc(NCc4ccccc4)c([N+](=O)[O-])c3)n2)cc(OC)c1OC
COc1ccc(Cl)cc1NC(=O)c1sc(-n2nc(C)c(Cc3ccccc3)c2C)nc1C
CCc1ccc(CN(Cc2ccco2)C(=O)c2ccc(OC)cc2)cc1
COc1ccc(N2CCN(c3oc(/C=C/c4ccc(F)cc4)nc3C#N)CC2)cc1
